In data set [1] the test system is T47D-ERβ cells. To be noted: 0 ng/ml tetracycline, 96 h, resazurin; at 3nM PPT, 100nM DPN, 1nM E2. On the technique in general: Alamar Blue is a resazurin reagent that responds to reducing activity.
The test system of data set [2] is T47D-ERβ cells. As to the kind of experiment: Cytotoxicity of tetracycline in T47D-ERβ cells. Format: cell-based, human. To be noted: data not shown.
The test system of data set [3] is ERβ expression in T47D-ERβ cells. The data set is described as follows: ERβ expression-related EGFP fluorescence in cell lysate of T47D-ERβ cells. The settings on record: 24 h exposure. Format: cell-based, human.

For `CCCc1c(-c2ccc(O)cc2)nn(-c2ccc(O)cc2)c1-c1ccc(O)cc1` [PPT, 4,4′,4″-(4-propyl-[1H]pyrazole-1,3,5-triyl) Tris-phenol], the “Maximum induced proliferation in the absence of tetracycline (full expression of ERβ)” value with T47D-ERβ cells [1] came out at 153%. `CN(C)[C@@H]1C(O)=C(C(N)=O)C(=O)[C@@]2(O)C(O)=C3C(=O)c4c(O)cccc4[C@@](C)(O)[C@H]3C[C@@H]12` [tetracycline, Tetracycline]: the Concentration causing cytotoxicity entry in the data set with T47D-ERβ cells [2] is listed as “above 2000 ng/ml”. Also, the “Concentration resulting in total fluorescence suppression” value in data set [3] is given as “above 150 ng/ml”.

The values above are taken from paper PMC2527638 (Toxicological Sciences, 2008).
